Inconclusive means that the source gave no clear call. Such entries were picked first, then a sample of the others. For some assays here: Potencies of inconclusive entries are left out as doubtful fits. Activity calls are given as the source filed them. Unless noted, calls follow the shape of the dose curve; as a rule, active = well fitted curve in the direction sought with a large enough effect; inconclusive = small, poorly fitted or top-dose-only effect, or another doubt; inactive = no such curve, though single readings can be large; an effect the other way counts as inactive or inconclusive.
Experiments:
[1] = AP1 Signaling Pathway (AID 357; active = well fitted curve in either direction with a large enough effect, not every such curve was filed as active; inconclusive = small, poorly fitted or top-dose-only effect, or another doubt;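 also: ME-180 reporter cells stimulated with EGF at its EC50 level; top concentration of the series differs between compounds; % is scaled to controls: 0 for no effect and ±100 for the full control effect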); settings: ME-180 AP-1-bla reporter, EGF-induced, beta-lactamase ratio, 5 h; at 7.69 µM (top of the series) unless noted
Summary of the method: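 A ratiometric CCF4 readout (405 nm excitation; 460 and 530 nm emission) quantified AP-1-driven beta-lactamase in ME-180 cells after 5 h with compound and EC50 EGF; AC50 values were derived for activators and inhibitors.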

[2] = NFAT Signaling Pathway (AID 444; active = well fitted curve in either direction with a large enough effect, not every such curve was filed as active; inconclusive = small, poorly fitted or top-dose-only effect, or another doubt;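 also: carbachol stimulus at about its EC50 of 1 µM final; % is scaled to controls: 0 for no effect and ±100 for the full control effect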); settings: Jurkat NFAT-bla M1, carbachol, beta-lactamase ratio, 5 h; at 7.69 µM (top of the series) unless noted
Summary of the method: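 Jurkat cells carrying an NFAT-driven β-lactamase reporter and co-transfected muscarinic M1 receptor were treated with compound plus carbachol (1 uM final, an EC50 level) for 5 h at 37 °C. CCF4 loading followed for 1 h at RT; 460/530 nm ratio gave %activity.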

[3] = Stat Signaling Pathway (AID 446; active = well fitted curve in either direction with a large enough effect, not every such curve was filed as active; inconclusive = small, poorly fitted or top-dose-only effect, or another doubt;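 also: ME-180 cervical cancer cells given 40 pM IL-6 alongside compound; SIE-controlled beta-lactamase reporter measured as 460/530 nm FRET emission ratio; top concentration of the series differs between compounds; % is scaled to controls: 0 for no effect and ±100 for the full control effect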); settings: ME-180 SIE beta-lactamase reporter, IL-6 stimulated, 5 h; at 7.69 µM (top of the series) unless noted
Summary of the method: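 FRET read-out (405 nm excitation, 460/530 nm emission) of a beta-lactamase reporter under a STAT-inducible element in ME-180 cervical carcinoma cells. Cells with compound receive 40 pM IL-6 for 5 h. Values are normalised to AC90 stimulation and AC90 JAK-inhibitor controls.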

[4] = target: Mitogen-activated protein kinase 10 (Mus musculus) (UniProt Q61831); assay: JNK3 AlphaScreen Assay (AID 530; active = well fitted curve in either direction with a large enough effect, not every such curve was filed as active; inconclusive = small, poorly fitted or top-dose-only effect, or another doubt;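 also: kinase came from lysate of stimulated human HepG2 cells; signal reports phosphorylation of biotinylated GST-cJun 1-79 at Ser73 with 10 µM ATP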; also: potency is read from the fitted curve at half-maximal effect); settings: JNK3 lysate, c-Jun phosphorylation; activity change, negative = inhibition: at 57.1 µM (top of the series)
Summary of the method: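 Phosphorylation of biotinylated GST-cJun(1-79) at Ser73 is measured by AlphaScreen proximity luminescence. Enzyme is JNK3 in HepG2 lysates activated with interleukin-1beta and tumor necrosis factor alpha; ATP is 10 uM final.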

[5] = target: Dual specificity protein kinase CLK4 (Homo sapiens) (UniProt Q9HAZ1); assay: qHTS Assay for Inhibitors of CDC-like Kinase 4 (Kinase-Glo Assay) (AID 1770); settings: recombinant Clk4, Kinase-Glo ATP depletion luminescence; series mostly up to 66.7 µM; also: nearly all actives have a fitted effect of over 65% in size; also: potency is read from the fitted curve at half-maximal effect; as to activity, negative = inhibition: % is scaled to controls: 0 for no effect and ±100 for the full control effect
Summary of the method: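 25 nM Clk4 with 100 uM RS repeat peptide and 1 uM ATP (final) in Tris pH7.5, 10 mM MgCl2, 4.5 h at room temperature. Remaining ATP measured by Kinase-Glo luciferase luminescence.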

[6] = target: Ubiquitin carboxyl-terminal hydrolase 1 (Homo sapiens) (UniProt O94782); assay: Inhibitors of USP1/UAF1: Pilot qHTS (AID 504865); settings: purified USP1/UAF1, Ub-rhodamine cleavage fluorescence; series mostly up to 54.9 µM;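 also: rhodamine fluorescence freed from ubiquitin-rhodamine substrate followed over time; potency is read from the fitted curve at half-maximal effect; nearly all actives have a fitted effect of over 35% in size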
Summary of the method: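 USP1/UAF1 complex at 1 nM preincubated 15 min at room temperature with compound, then Ub-Rho substrate added at 150 nM final. Fluorescence (480/540 nm) read kinetically in 50 mM HEPES pH 7.8, 0.5 mM EDTA, 1 mM TCEP, 0.1 mg/ml BSA, 0.01% Tween-20.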

[7] = Primary qHTS for small molecule stabilizers of the endoplasmic reticulum resident proteome: Secreted ER Calcium Modulated Protein (SERCaMP) assay (AID 1508630); settings: SH-SY5Y GLuc-SERCaMP (Gaussia luciferase released on ER calcium loss) secretion, thapsigargin, luminescence; activity change, negative = inhibition: at 38.4 µM (top of the series) unless noted; also: potency is read from the fitted curve at half-maximal effect
Summary of the method: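 The SH-SY5Y reporter protocol was run at 3 concentrations up to 38.3 uM (primary) or 11 concentrations (follow-up): 16 h compound, 100 nM thapsigargin for 4 h, then extracellular luciferase luminescence.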

[8] = target: Cytochrome P450 2C9 (Homo sapiens) (UniProt P11712); assay: qHTS Assay for Inhibitors and Substrates of Cytochrome P450 2C9 (AID 883); settings: recombinant CYP2C9, luciferin-H luminescence, 60 min; series mostly up to 57.1 µM; also: potency is read from the fitted curve at half-maximal effect; nearly all actives have a fitted effect of over 60% in size
Summary of the method: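 Human CYP2C9 (10nM) hydroxylated Luciferin-H (100uM, at its KM) to luciferin in 25mM KPO4. Compound was preincubated 10 min at 37C, then NADPH regeneration started a 60 min reaction at 37C. Luminescence was read after detection reagent, normalized to 57uM sulphaphenazole.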

[9] = target: Cytochrome P450 3A4 (Homo sapiens) (UniProt P08684); assay: qHTS Assay for Inhibitors and Substrates of Cytochrome P450 3A4 (AID 884); settings: recombinant CYP3A4, Luciferin-PPXE luminescence; activity change, negative = inhibition: at 57.1 µM (top of the series); also: potency is read from the fitted curve at half-maximal effect; nearly all actives have a fitted effect of over 50% in size
Summary of the method: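 Luminescent readout of luciferin produced by CYP3A4 (20 nM) dealkylation of Luciferin-PPXE, 25 uM (its KM). NADPH-driven reaction ran 60 min at RT after 10 min compound preincubation; data scaled to 57 uM ketoconazole as 100% inhibition.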

[10] = qHTS Assay for Identification of Small Molecule Agonists for Hypoxia Response Element Signaling Pathway (AID 914; active = well fitted activation curve with a large enough effect in the signal ratio, with a control signal flat, not every such curve was filed as active; inconclusive = small, poorly fitted or top-dose-only effect, or effect the other way, or a change in a side signal; the % refers to the signal ratio; also: potency is read from the fitted curve at half-maximal effect); settings: ME-180 (cervical carcinoma) HRE-bla reporter, beta-lactamase ratio, CoCl2, 17 h; activation: stronger effect = higher value
Summary of the method: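 qHTS titration; ME-180 HRE-bla cells; EC50 CoCl2 co-treatment, 17 h at 37 degrees Celsius; CCF4 dye, ex 405nm, em 460nm and 530nm; %Activity from ratio; AC50.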

[11] = target: Dual specificity protein kinase CLK4 (Homo sapiens) (UniProt Q9HAZ1); assay: qHTS Assay for Inhibitors of CDC-like Kinase 4 (ADP-Glo Assay) (AID 1771); settings: recombinant CLK4, ADP-Glo luminescence; series mostly up to 80 µM; also: potency is read from the fitted curve at half-maximal effect; nearly all actives have a fitted effect of over 70% in size
Summary of the method: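 ADP production was read by ADP-Glo luminescence after residual ATP depletion, following 1 h room-temperature reaction of 25 nM Clk4, 1 uM ATP and 100 uM RS peptide with MgCl2, EGTA, DTT and Triton X-100.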

[12] = target: 3',5'-cyclic-AMP phosphodiesterase 4B (Homo sapiens) (UniProt Q07343); assay: qHTS Assay for Inhibitors of PDE-IV (AID 607; active = well fitted activation curve with a large enough effect in the main read-out, with a control signal flat, not every such curve was filed as active; inconclusive = small, poorly fitted or top-dose-only effect, or effect the other way, or a change in a side signal; also: potency is read from the fitted curve at half-maximal effect; as to activation (PDE inhibition): % of control where 0% means no effect); settings: HEK293 ACTOne CNG channel cells, membrane potential fluorescence; activation (PDE inhibition): at 22.9 µM (top of the series)
Summary of the method: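 Cell-based read-out of cAMP via a modified cyclic nucleotide-gated channel and membrane potential dye (535/590 nm) in HEK293 cells expressing PDE4 endogenously. Compounds tested up to 22.9 uM final; 100 uM RO 20-1724 reference.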

[13] = target: Dual specificity protein kinase CLK4 (Homo sapiens) (UniProt Q9HAZ1); assay: qHTS Assay for Inhibitors of CDC-like Kinase 4 (ADP-FP Assay) (AID 1795); settings: Transcreener ADP fluorescence polarization; series mostly up to 50 µM;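 also: recombinant human CLK4 phosphorylating RS repeat peptide at 1 µM ATP; potency is read from the fitted curve at half-maximal effect; nearly all actives have a fitted effect of over 60% in size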
Summary of the method: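 Recombinant Clk4 (6.25 nM) phosphorylated 100 uM RS repeat peptide with 1 uM ATP in 25 mM Tris pH 7.5, 10 mM MgCl2, 0.5 mM EGTA, 2.5 mM DTT, 0.01% Triton X-100 for 1 h. ADP was detected by Transcreener ADP2 competitive fluorescence polarization after 30 min at room temperature.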

[14] = target: Cytochrome P450 2D6 (Homo sapiens) (UniProt P10635); assay: qHTS Assay for Inhibitors and Substrates of Cytochrome P450 2D6 (AID 891); settings: recombinant CYP2D6, luciferin-ME EGE luminescence; series mostly up to 57.1 µM;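 also: luciferin methyl ether substrate demethylated by CYP2D6 with NADPH regeneration; potency is read from the fitted curve at half-maximal effect; nearly all actives have a fitted effect of over 60% in size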
Summary of the method: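 Luminescent read-out of luciferin formed by 5 nM human CYP2D6 demethylating 30 uM Luciferin-ME EGE (Km level) over 60 min at room temperature after NADPH regeneration addition. Data normalized to full inhibition by 1.43 uM quinidine.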

[15] = target: Cytochrome P450 2C19 (Homo sapiens) (UniProt P33261); assay: qHTS Assay for Inhibitors and Substrates of Cytochrome P450 2C19 (AID 899); settings: recombinant CYP2C19, luciferin-H EGE luminescence; series mostly up to 57.1 µM; also: potency is read from the fitted curve at half-maximal effect; nearly all actives have a fitted effect of over 60% in size
Summary of the method: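 Human CYP2C19 (5nM) with Luciferin-H EGE at 10uM (its KM) in 50mM KPO4 was preincubated with compound for 10 min at 37C. NADPH regeneration started a 60 min 37C reaction. Luciferin was read by luminescence, normalized to 57uM ketoconazole.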
Tags tell the direction and shape of the fitted curve or compound fluorescence and quenching.

UniProt O94782, sequence (O94782 whole entry, looked up): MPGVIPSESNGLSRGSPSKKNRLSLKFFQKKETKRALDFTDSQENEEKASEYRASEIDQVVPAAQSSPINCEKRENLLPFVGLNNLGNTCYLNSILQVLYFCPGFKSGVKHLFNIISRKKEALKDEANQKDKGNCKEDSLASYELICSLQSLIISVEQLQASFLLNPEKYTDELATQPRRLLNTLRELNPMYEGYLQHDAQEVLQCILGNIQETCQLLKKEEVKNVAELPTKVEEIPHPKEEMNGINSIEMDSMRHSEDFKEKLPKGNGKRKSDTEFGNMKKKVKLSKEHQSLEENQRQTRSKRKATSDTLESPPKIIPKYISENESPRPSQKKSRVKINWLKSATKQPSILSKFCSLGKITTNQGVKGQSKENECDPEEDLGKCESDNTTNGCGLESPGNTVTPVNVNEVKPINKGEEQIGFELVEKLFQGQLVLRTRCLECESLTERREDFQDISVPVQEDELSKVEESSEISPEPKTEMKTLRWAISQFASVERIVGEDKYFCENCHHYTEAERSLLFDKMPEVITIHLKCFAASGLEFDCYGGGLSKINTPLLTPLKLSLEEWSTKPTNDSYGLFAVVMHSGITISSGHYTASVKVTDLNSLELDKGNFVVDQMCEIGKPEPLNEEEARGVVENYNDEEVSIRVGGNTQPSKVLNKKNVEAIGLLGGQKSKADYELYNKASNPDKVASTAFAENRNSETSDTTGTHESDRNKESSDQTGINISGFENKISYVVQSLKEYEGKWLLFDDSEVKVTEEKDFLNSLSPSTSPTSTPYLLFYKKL
UniProt Q07343, sequence (Q07343 whole entry, looked up): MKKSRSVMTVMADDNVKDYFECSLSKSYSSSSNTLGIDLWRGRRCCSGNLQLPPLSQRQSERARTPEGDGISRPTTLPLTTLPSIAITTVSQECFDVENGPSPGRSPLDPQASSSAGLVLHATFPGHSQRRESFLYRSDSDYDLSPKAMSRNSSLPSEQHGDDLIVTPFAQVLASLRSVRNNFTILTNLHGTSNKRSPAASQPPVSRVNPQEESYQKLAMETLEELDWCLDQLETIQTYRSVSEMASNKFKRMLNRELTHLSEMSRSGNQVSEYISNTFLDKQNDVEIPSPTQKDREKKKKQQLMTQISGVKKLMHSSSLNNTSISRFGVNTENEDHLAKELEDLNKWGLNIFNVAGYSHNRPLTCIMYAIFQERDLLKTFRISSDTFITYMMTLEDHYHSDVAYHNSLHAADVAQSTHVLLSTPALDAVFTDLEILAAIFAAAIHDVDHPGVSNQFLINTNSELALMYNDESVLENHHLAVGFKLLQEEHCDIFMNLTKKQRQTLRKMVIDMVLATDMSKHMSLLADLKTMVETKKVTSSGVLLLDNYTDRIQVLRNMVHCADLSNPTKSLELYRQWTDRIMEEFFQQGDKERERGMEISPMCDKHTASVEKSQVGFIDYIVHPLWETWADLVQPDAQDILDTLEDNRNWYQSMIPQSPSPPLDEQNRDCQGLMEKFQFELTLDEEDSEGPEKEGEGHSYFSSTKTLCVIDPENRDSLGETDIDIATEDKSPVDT
UniProt Q9HAZ1, sequence (Q9HAZ1 whole entry, looked up): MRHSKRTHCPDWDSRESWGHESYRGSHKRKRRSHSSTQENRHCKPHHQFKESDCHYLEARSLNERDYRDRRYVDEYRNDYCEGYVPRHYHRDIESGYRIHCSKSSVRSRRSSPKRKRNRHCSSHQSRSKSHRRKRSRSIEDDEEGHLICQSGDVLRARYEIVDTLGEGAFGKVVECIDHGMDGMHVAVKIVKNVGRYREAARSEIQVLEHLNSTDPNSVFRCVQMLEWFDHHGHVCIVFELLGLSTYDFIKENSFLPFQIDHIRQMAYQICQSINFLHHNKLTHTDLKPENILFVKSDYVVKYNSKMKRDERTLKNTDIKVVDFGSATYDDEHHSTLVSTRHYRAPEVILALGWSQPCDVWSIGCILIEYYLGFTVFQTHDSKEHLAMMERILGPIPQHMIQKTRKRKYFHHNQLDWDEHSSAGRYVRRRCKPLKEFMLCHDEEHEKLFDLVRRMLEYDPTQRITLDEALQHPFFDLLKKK
UniProt P11712, sequence (P11712 whole entry, looked up): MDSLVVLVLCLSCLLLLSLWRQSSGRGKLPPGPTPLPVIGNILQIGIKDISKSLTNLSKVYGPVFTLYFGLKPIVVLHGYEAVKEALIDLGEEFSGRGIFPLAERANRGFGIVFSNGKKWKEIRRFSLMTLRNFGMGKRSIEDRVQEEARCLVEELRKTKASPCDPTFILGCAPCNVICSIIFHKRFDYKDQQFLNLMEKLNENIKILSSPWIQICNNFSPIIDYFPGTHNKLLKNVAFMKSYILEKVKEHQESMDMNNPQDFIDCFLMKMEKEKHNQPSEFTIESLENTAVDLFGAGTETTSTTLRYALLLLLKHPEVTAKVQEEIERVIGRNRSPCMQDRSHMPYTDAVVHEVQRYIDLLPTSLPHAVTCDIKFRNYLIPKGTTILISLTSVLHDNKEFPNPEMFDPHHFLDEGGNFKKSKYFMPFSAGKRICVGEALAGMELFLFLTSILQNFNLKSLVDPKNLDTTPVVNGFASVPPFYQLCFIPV
UniProt P33261, sequence (P33261 whole entry, looked up): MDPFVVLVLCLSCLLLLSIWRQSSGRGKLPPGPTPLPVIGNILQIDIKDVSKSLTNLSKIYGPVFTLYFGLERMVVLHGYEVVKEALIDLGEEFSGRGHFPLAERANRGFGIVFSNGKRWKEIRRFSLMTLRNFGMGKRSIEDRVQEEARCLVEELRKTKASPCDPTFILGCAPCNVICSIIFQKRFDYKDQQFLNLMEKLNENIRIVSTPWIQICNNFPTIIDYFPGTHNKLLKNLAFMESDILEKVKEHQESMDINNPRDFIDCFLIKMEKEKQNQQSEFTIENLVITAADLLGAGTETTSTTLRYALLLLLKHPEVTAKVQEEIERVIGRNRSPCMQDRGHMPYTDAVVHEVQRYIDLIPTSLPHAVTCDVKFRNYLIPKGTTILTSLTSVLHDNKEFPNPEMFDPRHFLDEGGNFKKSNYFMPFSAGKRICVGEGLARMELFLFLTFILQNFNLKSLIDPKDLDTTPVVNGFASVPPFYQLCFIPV
UniProt P10635, sequence (P10635 whole entry, looked up): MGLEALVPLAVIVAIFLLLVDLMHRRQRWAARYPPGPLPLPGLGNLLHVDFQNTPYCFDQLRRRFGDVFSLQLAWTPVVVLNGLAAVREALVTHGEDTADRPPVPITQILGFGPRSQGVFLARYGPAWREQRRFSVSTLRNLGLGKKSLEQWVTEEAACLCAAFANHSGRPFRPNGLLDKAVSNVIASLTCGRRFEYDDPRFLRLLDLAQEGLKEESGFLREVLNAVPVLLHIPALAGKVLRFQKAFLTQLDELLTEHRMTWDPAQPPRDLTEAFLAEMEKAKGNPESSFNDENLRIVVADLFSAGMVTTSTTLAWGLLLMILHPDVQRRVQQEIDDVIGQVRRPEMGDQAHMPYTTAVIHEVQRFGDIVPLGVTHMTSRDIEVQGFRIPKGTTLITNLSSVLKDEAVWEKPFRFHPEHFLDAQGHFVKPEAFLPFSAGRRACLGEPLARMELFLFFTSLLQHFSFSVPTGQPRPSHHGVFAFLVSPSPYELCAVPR
UniProt P08684, sequence (P08684 whole entry, looked up): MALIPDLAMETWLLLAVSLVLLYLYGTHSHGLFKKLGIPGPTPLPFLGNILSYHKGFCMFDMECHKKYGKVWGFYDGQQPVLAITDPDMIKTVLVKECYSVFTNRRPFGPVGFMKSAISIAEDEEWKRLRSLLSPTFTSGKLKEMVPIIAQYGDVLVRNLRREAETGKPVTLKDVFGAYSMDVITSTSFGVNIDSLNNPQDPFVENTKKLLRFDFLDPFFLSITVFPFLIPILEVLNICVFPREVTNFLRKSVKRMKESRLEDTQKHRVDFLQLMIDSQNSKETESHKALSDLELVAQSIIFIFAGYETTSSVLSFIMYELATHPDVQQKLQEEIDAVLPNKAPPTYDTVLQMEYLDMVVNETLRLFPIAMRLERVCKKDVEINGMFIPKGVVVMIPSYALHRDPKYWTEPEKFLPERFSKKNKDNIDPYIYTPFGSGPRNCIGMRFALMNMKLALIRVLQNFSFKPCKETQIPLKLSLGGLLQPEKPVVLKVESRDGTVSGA

COc1cccc(Cn2c(=O)c(-c3ccc(F)cc3)nc3cnc(N4CCNCC4)nc32)c1
activity change, negative = inhibition [1]: inconclusive: 178% [activator] | activity change, negative = inhibition [2]: inconclusive: 236% [activator] | activity, negative = inhibition [3]: inconclusive: 244% [activator] | Potency [4]: inconclusive [activator, partial curve] | Potency [5]: inactive | Potency [6]: inconclusive [inhibitor, single point] | Potency [7]: inconclusive [inhibitor, single point]

CN(C)c1ccc(-c2cncnc2NCCc2cnc[nH]2)cc1
activity, negative = inhibition [3]: inactive: -11.7% | Potency [8]: inconclusive [inhibitor, partial curve] | Potency [9]: inconclusive [inhibitor, full curve] | Potency [10]: inconclusive [inhibitor, single point] | Potency [5]: inconclusive [falling, partial curve] | Potency [11]: inconclusive [falling, single point] | Potency [7]: inconclusive [inhibitor, partial curve, poor fit]

COc1ccccc1CNc1ccnc(-c2cccc(NS(C)(=O)=O)c2)n1
Potency [12]: inactive | Potency [5]: active: 28.2 µM | Potency [13]: inconclusive [falling, single point] | Potency [6]: inconclusive [inhibitor, partial curve, poor fit] | Potency [7]: inconclusive [inhibitor, single point]

COc1ccc2[nH]cc(CCNc3cc(-c4cccnc4)ncn3)c2c1
Potency [4]: inconclusive [inhibitor, single point] | Potency [5]: active: 14.1 µM | Potency [13]: inconclusive [falling, partial curve] | Potency [7]: inactive

CC(=O)NCCNc1ncnc2ccc(-c3ccccc3C)cc12
Potency [12]: inconclusive [activator, partial curve] | Potency [10]: inconclusive [activator, partial curve] | Potency [5]: active: 15.8 µM | Potency [11]: active: 12.6 µM | Potency [7]: inconclusive [inhibitor, single point]

CNc1ncncc1-c1ccccc1CN(C)C
Potency [4]: inactive | Potency [5]: inconclusive [falling, partial curve] | Potency [11]: inconclusive [falling, single point] | activity change, negative = inhibition [7]: inconclusive: -30.8% [inhibitor]

COc1cccc(-c2cncnc2NCCc2c[nH]c3ccc(OC)cc23)c1
activity change, negative = inhibition [1]: inconclusive: -56.1% [inhibitor] | activity change, negative = inhibition [2]: inconclusive: -38.5% [inhibitor] | activity, negative = inhibition [3]: inconclusive: -39.2% [inhibitor] | Potency [4]: inconclusive [inhibitor, partial curve] | Potency [14]: active: 2.51 µM | Potency [10]: inconclusive [inhibitor, full curve] | Potency [5]: active: 20 µM | Potency [7]: inconclusive [inhibitor, single point]

COc1ccc2[nH]cc(CCNc3ncnc4ccc(-c5ccoc5)cc34)c2c1
activity change, negative = inhibition [1]: inconclusive: -52.8% [inhibitor] | activity change, negative = inhibition [2]: inactive: 0.633% | Potency [4]: inactive | Potency [15]: active: 7.94 µM | Potency [10]: inconclusive [inhibitor, partial curve] | Potency [5]: active: 0.794 µM | Potency [7]: inconclusive [inhibitor, single point]

COc1ccc2[nH]cc(CCNc3ncncc3-c3ccccc3C(F)(F)F)c2c1
Potency [10]: inconclusive [inhibitor, single point] | Potency [5]: inconclusive [falling, single point] | Potency [11]: inconclusive [falling, single point] | Potency [7]: inconclusive [inhibitor, single point]

c1csc(CNc2nc(-c3ccc4c(c3)OCO4)nc3ccccc23)c1
activity change, negative = inhibition [2]: inconclusive: -59.4% [inhibitor] | Potency [12]: inconclusive [activator, partial curve] | Potency [8]: inconclusive [inhibitor, single point] | Potency [15]: active: 3.16 µM | Potency [5]: inconclusive [falling, partial curve] | Potency [11]: inconclusive [falling, single point] | Potency [6]: inconclusive [inhibitor, partial curve, poor fit] | Potency [7]: inactive

From PubChem BioAssay (NCATS)
